Reference: PubChem BioAssay AID686979 (National Center for Advancing Translational Sciences (NCATS), 2013)
“And” between values parts separate entries of the source, which are not always exact repeats. Equal values may be shown once. The campaign covered roughly 420,000 compounds. About 50,000 (12%) were called active. The inconclusive results got no clear call from the source; some entries with a clear call stand among them for comparison. The call rests on the fitted dose curve; in most records, active means well fitted inhibition curve with a large enough effect; inconclusive means small, poorly fitted or top-dose-only effect; inactive means flat fitted curve, though single readings scatter. Where the call is inconclusive, the potency comes from a doubtful curve fit.

Assay: qHTS for Inhibitors of human tyrosyl-DNA phosphodiesterase 1 (TDP1): qHTS in cells in presence of CPT; further: nearly all actives have a fitted effect of over 55% in size
Conditions: chicken DT40 Tdp1-/-;hTDP1 cells + 20 nM CPT, ATP luminescence, 48 h; activity change, negative = growth inhibition: at 46.2 µM (top of the series) unless noted
How it was run: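 Chicken DT40 Tdp1-/- cells stably complemented with human TDP1 were seeded at 400 cells/well in medium containing 20 nM camptothecin, exposed to pin-transferred compounds, and grown at 37 °C for at least 48 hr. Viability was read as ATP luminescence.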
On the % scale 0 is the no-effect control and ±100 the full control effect; potency means the concentration at half of the fitted maximal effect; tags describe the fitted curve by direction and shape.

**Q.** Which Potency does the source give for `CCN(CC)c1ccc(C(=O)Nc2ccccc2)cc1[N+](=O)[O-]` here?
**A.** inactive

**Q.** For `CCOC(=O)c1[nH]ncc1CN1CCN(Cc2ccc(C)cc2)C(CCO)C1` (stereo not given), which Potency is on record?
**A.** inactive

**Q.** With `CC1CCCCC1NC(=O)CCNS(=O)(=O)c1ccc(Cl)cc1` (stereo not given) as the molecule, how does the Potency read?
**A.** inconclusive: 29.1 µM [inhibitor, single point]

**Q.** Which Potency does the source give for `CCN(CC)C(=O)Cn1c(=O)n(-c2ccccc2)c(=O)c2sccc21` here?
**A.** inactive

**Q.** With `Cc1ccc(NC(=O)CC(=O)Nc2ccc(C)c(C)c2)cc1C` as the molecule, how does the Potency read?
**A.** inactive

**Q.** Which Potency does the source give for `CC1CCN(c2ccc3c(c2)S(=O)(=O)c2cccc(C(=O)NC[C@@H]4CCCO4)c2C3=O)CC1` here?
**A.** active: 13 µM

**Q.** With `C/C(=C/c1ccccc1)C(=O)N1CC(C)OC(C)C1` (stereo not given) as the molecule, how does the Potency read?
**A.** inactive

**Q.** Which Potency does the source give for `CC(=O)NC(CCS(C)(=O)=O)C(=O)Nc1cccc(C(C)=O)c1` (stereo not given) here?
**A.** inactive

**Q.** With `CC(=O)Nc1ccc(C2=NN(c3ccccc3)C(c3cccs3)C2)cc1` (stereo not given) as the molecule, how does the Potency read?
**A.** inactive

**Q.** For `Cc1ccccc1NC(=O)CN(C)S(=O)(=O)c1ccc2c(c1)n(C)c(=O)c(=O)n2C`, which Potency is on record?
**A.** inactive

**Q.** For `COc1ccccc1N1C(=S)NC2CS(=O)(=O)CC21` (stereo not given), which Potency is on record?
**A.** inactive

**Q.** Which Potency does the source give for `O=c1c2ccccc2oc2cc(O)c(C3COCC(CO)C(O)C(O)C3O)c(O)c12` (stereo not given) here?
**A.** inactive

**Q.** Which Potency does the source give for `COC(=O)c1cc2sc(Cl)cc2n1Cc1nc(-c2ccccc2)oc1C` here?
**A.** inconclusive: 29.1 µM [inhibitor, single point]

**Q.** For `Cc1cccc(C)c1NC(=O)C(C1CC1)n1c(=O)c(-c2ccccc2)nc2ccccc21` (stereo not given), which Potency is on record?
**A.** inconclusive: 29.1 µM [inhibitor, single point]

**Q.** With `CCCCc1c(-c2ccccc2OC)ncn1CCc1cccc(Cl)c1` as the molecule, how does the Potency read?
**A.** active: 16.4 µM

**Q.** With `Cc1csc2nc(COC(=O)c3cccc(NC(=O)COc4ccccc4Cl)c3)cc(=O)n12` as the molecule, how does the Potency read?
**A.** inconclusive: 29.1 µM [inhibitor, single point]

**Q.** With `Nc1ccc(C(=O)NCc2ccccc2)cc1` as the molecule, how does the Potency read?
**A.** inactive

**Q.** For `C/C(=N\NC(=O)c1cccc(N/N=C(\C)c2ccco2)c1)c1ccco1`, which Potency is on record?
**A.** inactive

**Q.** With `CCN(CC)CCOC(=O)C(c1ccccc1)c1ccccc1` as the molecule, how does the Potency read?
**A.** inconclusive: 16.4 µM [inhibitor, single point] and inconclusive: 29.1 µM [inhibitor, single point]

**Q.** For `CCn1c2ccccc2c2nn(C)c(=N)nc21`, which Potency is on record?
**A.** active: 14.6 µM

**Q.** With `Cc1ccccc1-n1nc2c(c1NC(=O)/C=C\c1ccc3c(c1)OCO3)CSC2` as the molecule, how does the Potency read?
**A.** inconclusive: 29.1 µM [inhibitor, single point]

**Q.** For `CCc1cccc(NC(=O)Cc2nc(-c3ccc(OC)cc3)no2)c1`, which Potency is on record?
**A.** inconclusive: 5.8 µM [inhibitor, full curve, poor fit]

**Q.** For `COc1ccc(N(C(=O)c2ccncc2)S(=O)(=O)c2ccccc2)cc1`, which Potency is on record?
**A.** inactive

**Q.** For `Cn1cccc1C1CCCN1CC(=O)Nc1ccc(F)c(F)c1F` (stereo not given), which activity change, negative = growth inhibition is on record?
**A.** inconclusive: -34.2% [inhibitor]

**Q.** Which Potency does the source give for `CCOc1ccc(OCC(=O)Nc2ccc(S(N)(=O)=O)cc2)cc1` here?
**A.** inactive

**Q.** With `O=C1N=C(N2CCCC2)S/C1=C\c1cccc(Br)c1` as the molecule, how does the Potency read?
**A.** inconclusive: 29.1 µM [inhibitor, single point]

**Q.** Which Potency does the source give for `O=C(CN1C(=O)CSc2ccc(S(=O)(=O)N3CCOCC3)cc21)NCc1ccc(F)cc1` here?
**A.** inactive

**Q.** For `CSc1nsc(SC)c1NC(=O)Nc1ccccn1`, which Potency is on record?
**A.** active: 16.4 µM

**Q.** With `CCOC(=O)C1=C(Cn2cnc3ccccc32)NC(=O)NC1c1ccc(Cl)cc1` (stereo not given) as the molecule, how does the Potency read?
**A.** inconclusive: 23.1 µM [inhibitor, single point]

**Q.** For `CCCCn1nc(C(=O)N(C)CC(=O)Nc2ccc(F)c(F)c2F)ccc1=O`, which Potency is on record?
**A.** inactive

**Q.** With `CC(C)(C)N(NS(=O)(=O)c1ccc(F)cc1)c1ccccc1` as the molecule, how does the Potency read?
**A.** inactive

**Q.** Which Potency does the source give for `CC1CCN(C(=O)c2ccc3c(c2NCCO)C(=O)c2ccccc2C3=O)CC1` here?
**A.** active: 23.1 µM

**Q.** Which Potency does the source give for `CCN1CCN(c2ccc(S(=O)(=O)N3CCCCC3)cc2NC(=O)/C=C/c2ccc(F)cc2)CC1` here?
**A.** inconclusive: 23.1 µM [inhibitor, single point]

**Q.** With `CCCCCCCCCCCCCCC(F)C(=O)O` (stereo not given) as the molecule, how does the activity change, negative = growth inhibition read?
**A.** inactive: 3.76% [at 4.12 µM]

**Q.** With `CC1(C)CN(c2ccccc2)N(C(=O)c2ccc(F)cc2)C1=O` as the molecule, how does the activity change, negative = growth inhibition read?
**A.** inconclusive: -35.8% [inhibitor]

**Q.** Which Potency does the source give for `CC1=C(C)C(O)N(Cc2ccccc2)C1=O` (stereo not given) here?
**A.** inactive

**Q.** With `COc1ccc(-c2cn3c(n2)sc2cc(C(=O)NC(C)C45CC6CC(CC(C6)C4)C5)ccc23)cc1` (stereo not given) as the molecule, how does the Potency read?
**A.** inconclusive: 6.51 µM [inhibitor, partial curve]

**Q.** For `O=C(N/N=C/C=C/c1ccco1)/C(=C/c1ccccc1)NC(=O)c1ccccc1`, which Potency is on record?
**A.** inconclusive: 18.4 µM [inhibitor, partial curve]

**Q.** For `CC(=O)NCCNC(=O)Cn1nnc(-c2ccccc2)c1COc1ccc2ccccc2c1`, which Potency is on record?
**A.** inconclusive: 16.4 µM [inhibitor, partial curve]

**Q.** For `CCOc1ccc(-c2c(C(=O)N/N=C/c3ccc(C)s3)nnn2-c2nonc2N)cc1`, which Potency is on record?
**A.** inconclusive: 29.1 µM [inhibitor, single point]

**Q.** For `O=C(CCl)N(Cc1ccccc1)c1ccccc1`, which Potency is on record?
**A.** active: 5.17 µM

**Q.** For `COc1ccc(CNC(=O)CC2N=C3c4ccccc4N=C(SCC(=O)Nc4ccc(C(C)C)cc4)N3C2=O)cc1` (stereo not given), which Potency is on record?
**A.** inactive

**Q.** With `CCOCCc1nnc(NC(=O)c2cccc(F)c2)s1` as the molecule, how does the Potency read?
**A.** inconclusive: 18.4 µM [inhibitor, single point]

**Q.** For `c1ccc(-c2nc3c(ccc4ccccc43)[nH]2)nc1`, which Potency is on record?
**A.** inconclusive: 29.1 µM [inhibitor, single point]

**Q.** Which Potency does the source give for `COc1ccc(CCNC2CC(=O)N(CCc3ccccc3)C2=O)cc1OC` (stereo not given) here?
**A.** inactive

**Q.** For `COc1cccc(CNC(=O)CCC2CCCN(C(=O)c3cccc(Cl)c3)C2)c1` (stereo not given), which Potency is on record?
**A.** inconclusive: 29.1 µM [inhibitor, single point]

**Q.** For `O=C(CSc1nnc2[nH]c(=O)cc(-c3ccccc3)n12)Nc1ccc(OC(F)(F)F)cc1`, which Potency is on record?
**A.** inactive

**Q.** Which Potency does the source give for `O=C(Nc1ccc(N2CCOCC2)c(Cl)c1)c1cc(F)c(F)cc1Cl` here?
**A.** inconclusive: 29.1 µM [inhibitor, single point]

**Q.** Which Potency does the source give for `CCCOc1ccc(/C(O)=C2\C(=O)C(=O)N(c3ccccn3)C2c2ccccc2F)cc1C` (stereo not given) here?
**A.** inactive

**Q.** For `O=C(NCc1cccs1)C1CCCN(S(=O)(=O)c2cccc3cccnc23)C1` (stereo not given), which Potency is on record?
**A.** inconclusive: 18.4 µM [inhibitor, single point]

**Q.** For `CC(C)(C)c1ccc(C(=O)N2CCN(C(=O)C3CCCCC3)CC2)cc1`, which Potency is on record?
**A.** active: 14.6 µM

**Q.** For `O=S(=O)(Cc1ccccc1Cl)NCCc1ccc(F)cc1`, which Potency is on record?
**A.** inactive

**Q.** With `Cc1ccc(S(=O)(=O)c2nc(-c3cccc(Br)c3)oc2N2CCCCCC2)cc1` as the molecule, how does the Potency read?
**A.** inconclusive: 23.1 µM [inhibitor, single point]

**Q.** With `Cc1nc2ccccc2n1CC(O)COc1ccc(Br)cc1` (stereo not given) as the molecule, how does the Potency read?
**A.** inconclusive: 16.4 µM [inhibitor, partial curve, poor fit]

**Q.** Which Potency does the source give for `COCc1cc(C)nc2sc3c(c12)NC(c1ccccc1C(=O)O)N(c1cccc(C(F)(F)F)c1)C3=O` (stereo not given) here?
**A.** active: 29.1 µM

**Q.** For `CCc1ccc2[nH]c(=O)c(CN(Cc3ccccc3OC)Cc3nnnn3Cc3ccco3)cc2c1`, which Potency is on record?
**A.** inconclusive: 18.4 µM [inhibitor, single point]

**Q.** For `Cc1ccc(Oc2ccc(C(F)(F)F)cc2[N+](=O)[O-])c([N+](=O)[O-])n1`, which Potency is on record?
**A.** inactive

**Q.** For `CCOC(=O)N1CCN(C(=O)CS(=O)(=O)c2cn(Cc3ccc(F)cc3)c3ccccc23)CC1`, which Potency is on record?
**A.** inactive

**Q.** For `CCOC(=O)C1CCN(S(=O)(=O)c2cc3c4c(c2)C(C)C(=O)N4CCC3)CC1` (stereo not given), which Potency is on record?
**A.** inactive

**Q.** For `CCNc1ncc2nc(C)c(=O)n(CCC#N)c2n1`, which Potency is on record?
**A.** inactive

**Q.** For `Cc1cccc(C(=O)Nc2c(C(=O)N3CCN(c4ccc(F)cc4)CC3)oc3ccccc23)c1`, which Potency is on record?
**A.** inconclusive: 18.4 µM [inhibitor, single point]

**Q.** For `CCN(CC)c1cc(C)c2cc(NC(=O)c3cc(OC)cc(OC)c3)ccc2n1`, which Potency is on record?
**A.** inconclusive: 20.6 µM [inhibitor, single point]

**Q.** For `CCOCCCNC(=O)Cn1cnc2c(cnn2-c2ccc(C)c(C)c2)c1=O`, which Potency is on record?
**A.** inconclusive: 13 µM [inhibitor, single point]

**Q.** For `CCc1[nH]c(C(=O)O)c(C)c1C(=O)OC`, which Potency is on record?
**A.** inactive

**Q.** For `N#C/C(=C\c1cccn1-c1ccccc1)C(=O)NC1CCCCC1`, which Potency is on record?
**A.** inconclusive: 2.91 µM [inhibitor, partial curve]

**Q.** For `O=C(Nc1cc(S(=O)(=O)N2CCOCC2)ccc1N1CCCCC1)c1cc(-c2ccccn2)nc2ccccc12`, which Potency is on record?
**A.** inconclusive: 16.4 µM [inhibitor, single point]

**Q.** Which Potency does the source give for `CCOC(=O)C(Sc1ncc(C#N)c(N)n1)C(C)C` (stereo not given) here?
**A.** inactive

**Q.** With `COc1cccc(N2CCN(C(=O)CCSCc3ccccc3F)CC2)c1` as the molecule, how does the Potency read?
**A.** inconclusive: 29.1 µM [inhibitor, single point] and inconclusive: 20.6 µM [inhibitor, single point]

**Q.** Which Potency does the source give for `CCn1ccc2c(OCC(=O)Nc3ccc(C)c(Cl)c3)cccc2c1=O` here?
**A.** active: 25.9 µM

**Q.** With `O=C(/C=C/c1ccc(Cl)cc1Cl)Nc1ccc(CN2CCOCC2)cc1` as the molecule, how does the Potency read?
**A.** inconclusive: 29.1 µM [inhibitor, single point]

**Q.** Which Potency does the source give for `COCCNC(=O)C1CCCN(Cc2ccccc2-c2ccccc2)CC1` (stereo not given) here?
**A.** inactive

**Q.** For `Cc1ccc(S(=O)(=O)N(CC(=O)Nc2ccc(F)cc2F)Cc2ccc(F)cc2)cc1`, which Potency is on record?
**A.** active: 18.4 µM

**Q.** With `C[C@H]1CN(c2ccc(Br)cc2)C(=O)[C@@H]1CC(=O)Nc1ccccc1` as the molecule, how does the Potency read?
**A.** inconclusive: 20.6 µM [inhibitor, single point]

**Q.** Which Potency does the source give for `CCOc1cccc(C(=O)Nc2nc(-c3ccc(S(=O)(=O)N4CCOCC4)cc3)cs2)c1` here?
**A.** inconclusive: 6.51 µM [inhibitor, full curve, poor fit]

**Q.** Which Potency does the source give for `O=C(Cc1ccc(Cl)cc1)NCC(c1cccs1)S(=O)(=O)c1ccccc1` (stereo not given) here?
**A.** inconclusive: 29.1 µM [inhibitor, single point]
